Assay results published in PubChem BioAssay AID588855 (National Center for Advancing Translational Sciences (NCATS), 2011).
Several values for one entry are separate records, joined by “and”; a condition that tells them apart may be missing. Equal entries are not always repeated. Among all 410,000 compounds or so, about 5,000 (1.2%) were called active. Inconclusive results, whose numbers are uncertain, are shown with a selection of clear calls. Calls come from the whole dose curve; as a rule, active = well fitted inhibition curve with a large enough effect; inconclusive = small, poorly fitted or top-dose-only effect; inactive = no such curve, though single readings can be large or run the other way. Where the call is inconclusive, the potency comes from a doubtful curve fit.

assay: qHTS for Inhibitors of TGF-b; details: HepG2 CAGA-GFP TGF-b/SMAD3 reporter, GFP fluorescence, 18 h, TGF-beta stimulated, 500 pg/mL final; series mostly up to 46.1 µM; activity, negative = inhibition: at the top concentration; note: nearly all actives have a fitted effect of over 65% in size
Summary of the method: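 HEPG2 CAGA-GFP reporter cells (1000/well, DMEM with 1% FBS) received compounds, then recombinant TGF-beta at 500 pg/mL final for 18 hours at 37 degrees C. Per-cell GFP summed per well was normalised to unstimulated and stimulated DMSO controls before curve fitting.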
% is set by controls: 0 for no effect and ±100 for the full control effect; potency is the fitted concentration of half-maximal effect; tags give direction and shape of the fitted curve.

Row | Compound | Potency | activity, negative = inhibition
1 | Cc1ccc(S(=O)(=O)N2CCCCC2)cc1NC(=O)CCNC(=O)c1ccc([N+](=O)[O-])cc1 | inconclusive: 35.5 µM [inhibitor, single point] | 
2 | CCC(C)NC(=O)c1ccc(-n2c(-c3ccccc3)cc3c2CCCC3)cc1 (configuration not stated) | inconclusive: 28.2 µM [inhibitor, single point] | 
3 | COc1ccc(-c2[nH]ncc2CN2CCN(Cc3cccs3)CC2)cc1F |  | inactive: -15.7%
4 | Cc1ccc(-c2c(C(=O)NCc3ccccc3)oc(=O)c3ccccc23)cc1 | inactive | 
5 | CC(C)c1cc(C(=O)Nc2cc(Cl)ccc2O)no1 | inconclusive: 12.6 µM [inhibitor, partial curve] | 
6 | O=C(NCCCCc1ccccc1)c1cccc(NC(=O)C2CCCCC2)c1 |  | inactive: -16.9%
7 | CC(Sc1ccc(S(=O)(=O)N2CCCC2)cn1)C(N)=O (configuration not stated) | inconclusive: 17.8 µM [inhibitor, single point] | 
8 | COc1ccc(C(NC(=O)C2CCN(CCOc3ccc(Cl)cc3Cl)CC2)c2cccs2)cc1 (configuration not stated) | active: 4.47 µM | 
9 | COc1cccc2c1C(=O)c1c(O)c3c(c(O)c1C2=O)C[C@@](O)(C(=O)CO)C[C@@H]3OC1CC(N)C(O)C(C)O1 (some centres not stated) | active: 5.62 µM | 
10 | Cc1oc(-c2cccc(Cl)c2)nc1CN1CCCC(C(=O)NCc2ccc(F)cc2)C1 (configuration not stated) | inconclusive: 2.51 µM [inhibitor, full curve, poor fit] | 
11 | CSC(=NC#N)N1CCN(C(c2ccccc2)c2ccccc2)CC1 |  | inactive: 2.38%
12 | CCOC(=O)C1CCCN(c2nc3ccccc3nc2C(C#N)C(=O)OCC)C1 (configuration not stated) | inconclusive: 35.5 µM [inhibitor, single point] | 
13 | COc1ccc(CN2CCN(Cc3nc4ccccc4s3)CC2CCO)c(C)c1C (configuration not stated) | inconclusive: 17.8 µM [inhibitor, single point] | 
14 | O=C(Nc1ccccc1C(=O)O)c1ccc(NC(=O)C2CC2)cc1 | inconclusive: 35.5 µM [inhibitor, single point] | 
15 | O=C(Nc1c(-c2ccccc2)nc2ccc(Cl)cn12)c1cccs1 | inconclusive: 2.51 µM [inhibitor, partial curve, poor fit] | 
16 | COc1ccc(-c2cn(CCO)nc2-c2ccc(OC)cc2)cc1 |  | inactive: 0%
17 | O=C(O)C1=CC[C@@H](c2ccc(Cl)cc2)N(S(=O)(=O)c2ccc(Cl)cc2)[C@H]1c1ccc(Br)cc1 | active: 12.6 µM | 
18 | CCOC(=O)c1sc2ccccc2c1S(=O)(=O)Nc1cccc(C(F)(F)F)c1 | inconclusive: 25.1 µM [inhibitor, single point] | 
19 | Oc1c(Cl)cc(Cl)cc1CNc1ccc(Br)cn1 | inconclusive: 20 µM [inhibitor, single point] | 
20 | CN(C)CCCN(C(=O)c1ccc2c(c1)CCCC2)c1nc2c(F)cccc2s1 | inconclusive: 35.5 µM [inhibitor, single point] | 
21 | Brc1cccc(-c2nnc3n2CCCCC3)c1 |  | inactive: 8.03%
22 | COc1ccc(OC)c(NC(=O)c2c(NCc3ccc(C)o3)sc3c2CCC(C)C3)c1 (configuration not stated) | inconclusive: 22.4 µM [inhibitor, single point] | 
23 | O=C(Nc1ccc(OC(F)F)cc1)Nc1cccc(C(F)(F)F)c1 | inconclusive: 2.82 µM [inhibitor, single point] | 

Row | Compound | Potency | activity, negative = inhibition
24 | Cc1ccc(CN2CC(C(=O)Nc3ccc(C)c(S(=O)(=O)N4CCCCC4)c3)CC2=O)cc1 (configuration not stated) | inconclusive: 20 µM [inhibitor, single point] | 
25 | O=S(=O)(Nc1ccc(S(=O)(=O)N2CCOCC2)cc1)c1ccccc1 |  | inactive: -7.04%
26 | Cc1cccc(N(CC(=O)Nc2ccc(Br)cc2)S(C)(=O)=O)c1C | inconclusive: 12.6 µM [inhibitor, partial curve, poor fit] | 
27 | C[C@@H]1CN([C@H](C)CO)S(=O)(=O)c2ccc(Br)cc2O[C@@H]1CN(C)C(=O)Nc1ccc(C(F)(F)F)cc1 | inconclusive: 35.5 µM [inhibitor, single point] | 
28 | O=[N+]([O-])c1ccc(N2CCN(C(=S)Nc3ccc(F)cc3F)CC2)cc1 |  | inactive: -1.77%
29 | Nc1c(C(=O)Nc2ccccc2)sc2nc3c(c(-c4ccco4)c12)CCC3 |  | inactive: -4.87%
30 | CC(=O)Oc1c(S(=O)(=O)c2ccc(C)cc2)c(C)nn1C(C)(C)C |  | inactive: -8.08%
31 | Cc1ccc(-c2nn(-c3ccccc3)cc2/C=N/O)cc1 | inconclusive: 11.2 µM [inhibitor, single point] | 
32 | CC(C)(C)C(=O)Nc1ccc(/C=C/C(=O)c2ccco2)cc1 | inconclusive: 11.2 µM [inhibitor, single point] | 
33 | Cc1ccc(CSCC(=O)N2CCN(c3ccc(F)cc3)CC2)cc1 | inconclusive: 22.4 µM [inhibitor, single point] | 
34 | O=C(O)COc1ccccc1C=NNc1ccc([N+](=O)[O-])cc1S(=O)(=O)Nc1ccc(Cl)cc1 | inconclusive: 35.5 µM [inhibitor, single point] | 
35 | CCn1c(SCC(=O)Nc2ccc3c(c2)oc2ccccc23)nnc1-c1ccc(N)cc1 | inconclusive: 14.1 µM [inhibitor, partial curve, poor fit] | 
36 | O=C(c1ccc(CS(=O)Cc2ccccc2Cl)o1)N1CCN(c2ccccn2)CC1 (configuration not stated) | inconclusive: 35.5 µM [inhibitor, single point] | 
37 | CCc1ccccc1NC(=O)C1CCN(C(=O)c2ccc([N+](=O)[O-])cc2)CC1 |  | inactive: -11.1%
38 | CCn1c(Nc2ccccc2Cl)nc2ccccc21 |  | inactive: 16.6%
39 | O=C(COC(=O)C12CC3CC(CC(O)(C3)C1)C2)NCc1ccco1 |  | inactive: 2.69%
40 | CSC(SC)=C(C(C)=O)C(=O)c1ccc(C)cc1 |  | inactive: 3.75%
41 | O=C(NCC(c1cccnc1)N1CCN(Cc2ccccc2)CC1)C(=O)Nc1ccc(Cl)cc1 (configuration not stated) | inconclusive: 35.5 µM [inhibitor, partial curve, poor fit] | 
42 | COc1ccccc1C(=O)NCC1CCN(c2ccc(S(=O)(=O)N3CCOCC3)cc2)CC1 | inconclusive: 25.1 µM [inhibitor, single point] | 
43 | Cc1ccc2[nH]c3c(c2c1)CN(C(=O)CN1CCCCC1)CC3 |  | inactive: 0%
44 | COc1ccccc1Cn1c(=S)[nH]c2cc(C(=O)NCCCN3CCOCC3)ccc2c1=O |  | inactive: -1.35%
45 | CCc1nn2c(=O)c(S(=O)(=O)Nc3ccc(OC)c(Cl)c3)c(C)nc2s1 |  | inactive: 3.73%
46 | S=c1[nH]nc(-c2ccccc2)n1/N=C/c1ccc(-c2ccccc2Cl)o1 | inconclusive: 25.1 µM [inhibitor, single point] | 

Row | Compound | Potency | activity, negative = inhibition
47 | CCCCOC(=O)n1c(=O)oc2cc(S(=O)(=O)N3CCCCC3)ccc21 | inconclusive: 12.6 µM [inhibitor, partial curve, poor fit] | 
48 | CCc1ccc(NC(=O)[C@H](C)NC(=O)C2CCN(C(=O)[C@@H](N)CC(C)C)CC2)cc1 | inconclusive: 3.98 µM [inhibitor, partial curve, poor fit] | 
49 | Cc1ccc(Oc2nc3ccccn3c(=O)c2/C=C(\C#N)C(=O)Nc2c(C)n(C)n(-c3ccccc3)c2=O)cc1 |  | inactive: -11.8%
50 | CCOC(=O)c1cc(-c2ccccc2)sc1NC(=O)c1ccc(OC)c(OC)c1 |  | inactive: 26%
51 | CCCCCCNC(=O)c1cn(CC)c2cc(N3CCN(C)CC3)c(F)cc2c1=O | inconclusive: 35.5 µM [inhibitor, single point] | 
52 | Cc1ccc(CN2CCCn3nc(C(=O)NCCc4ccc(Cl)cc4)cc3C2=O)cc1 | inconclusive: 2 µM [inhibitor, partial curve] | 
53 | Fc1ccc(-c2nnc(NC3=NCCCCC3)o2)cc1 |  | inactive: 4.81%
54 | COc1ccccc1CNC(=O)CCn1c(=O)c2ccccc2n(CC(=O)Nc2ccc(C)cc2C)c1=O |  | inactive: -3.91%
55 | COc1ccc(SC[C@H](Cc2ccccc2)N2CC[C@@H](NC(=O)OCc3ccccc3)CCC2=O)cc1 | inconclusive: 25.1 µM [inhibitor, single point] and inconclusive: 35.5 µM [inhibitor, single point] | 
56 | O=C(Nc1ccc(N2CCOCC2)cc1)c1ccc([N+](=O)[O-])cc1 |  | inactive: 4.23%
57 | O=C1C=C(/C=C/C2C=CC=CC2)C[C@@H](c2ccc(Cl)cc2)C1 (some centres not stated) | inconclusive: 28.2 µM [inhibitor, partial curve, poor fit] | 
58 | CC(=O)NC(c1ccc(Cl)cc1Cl)c1ccc2cccnc2c1O (configuration not stated) | inconclusive: 3.55 µM [inhibitor, single point] | 
59 | CCNc1nc(Nc2ccc(C)c(Cl)c2)c2cnn(C)c2n1 | inconclusive: 15.8 µM [inhibitor, single point] | 
60 | CCC(C)N1CCN(C(=O)c2cccs2)CC1 (configuration not stated) | inconclusive: 3.55 µM [inhibitor, single point] | 
61 | S=C(NCCc1ccccc1)Nc1ccc(Br)cc1 | inconclusive: 12.6 µM [inhibitor, partial curve, poor fit] | 
62 | O=C(COC(=O)/C=C/c1cccc(C(F)(F)F)c1)NC(=O)NCc1ccco1 |  | inactive: -27.6%
63 | CCn1c(COC(=O)CNC(=O)c2cc(OC)c(OC)c(OC)c2)nc2cc(S(=O)(=O)N(C)C)ccc21 |  | inactive: 6.22%
64 | CCOC(=O)c1ccc(NC(=O)C(CC)Sc2nc3ncccc3[nH]2)cc1 (configuration not stated) |  | inactive: -26.5%
65 | CCCCN(Cc1ccccc1)C(=O)c1oc(=O)c2ccccc2c1-c1ccc(C)cc1 | inconclusive: 12.6 µM [inhibitor, partial curve, poor fit] | 
66 | COc1ccc(Cc2n[nH]c(=S)n2NC(=O)Nc2ccc(C)cc2)cc1 | inconclusive: 6.31 µM [inhibitor, single point] | 
67 | C[C@H](CO)N1C[C@H](C)[C@@H](CN(C)C(=O)Nc2ccccc2)Oc2c(NS(=O)(=O)c3cccs3)cccc2C1=O | inconclusive: 7.94 µM [inhibitor, partial curve, poor fit] | 
